# The other results are listed elsewhere or left out. Most values come without repeats; read them as rough.
# Tested on: WM1745
# Assay: cell count relative to DMSO control; melanoma cells; higher = more viable cells
# Details: library dose: low library concentration; 72 h
# 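Note: cell number obtained by counting DAPI-stained nuclei in high-throughput microscope images with image analysis software, screen run in 1,536-well plates.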
row,Structure (SMILES),cell count [%]
1,"Clc1ccc(Nc2nnc(Cc3ccncc3)c3ccccc23)cc1 [vatalanib] + CN(C)S(=O)(=O)c1ccc2c(c1)/C(=C/c1cc3c([nH]1)CCCC3)C(=O)N2 [SU6656] (first compound 2 µM, partner dose 0.4 µM)",89
2,"Cn1c(Nc2ccc(C(F)(F)F)cc2)nc2cc(Oc3ccnc(-c4ncc(C(F)(F)F)[nH]4)c3)ccc21 + C[C@@H]1CCN(C(=O)CC#N)C[C@@H]1N(C)c1ncnc2[nH]ccc12 [CP690550] (first compound 0.08 µM, partner dose 1 µM)",68.4
3,"Cn1c(Nc2ccc(C(F)(F)F)cc2)nc2cc(Oc3ccnc(-c4ncc(C(F)(F)F)[nH]4)c3)ccc21 + Nc1cccc2c1CN(C1CCC(=O)NC1=O)C2=O [lenalidomide] (first compound 0.08 µM, partner dose 1 µM)",68.6
4,"Nc1cccc2c1CN(C1CCC(=O)NC1=O)C2=O (stereo not given) [lenalidomide] + O=S(=O)(c1ccccc1)N(CC(F)(F)F)c1ccc(C(O)(C(F)(F)F)C(F)(F)F)cc1 [T0901317] (first compound 1 µM, partner dose 1.4 µM)",81.2
5,"COCC[n+]1c2c(n(Cc3cnccn3)c1C)C(=O)c1ccccc1C2=O + O=S(=O)(c1ccccc1)N(CC(F)(F)F)c1ccc(C(O)(C(F)(F)F)C(F)(F)F)cc1 [T0901317] (first compound 0.0004 µM, partner dose 1.4 µM)",73.6
6,"Nc1cccc2c1CN(C1CCC(=O)NC1=O)C2=O (stereo not given) [lenalidomide] + NCC(=O)Nc1ccc(-n2nc(C(F)(F)F)cc2-c2ccc3c(ccc4ccccc43)c2)cc1 [OSU03012] (first compound 1 µM, partner dose 1 µM)",86.2
7,"Clc1ccc(Nc2nnc(Cc3ccncc3)c3ccccc23)cc1 [vatalanib] + CN(NC(=O)CC(=O)NN(C)C(=S)c1ccccc1)C(=S)c1ccccc1 [STA4783] (first compound 2 µM, partner dose 0.006 µM)",92.4
8,"Clc1ccc(Nc2nnc(Cc3ccncc3)c3ccccc23)cc1 [vatalanib] + C[C@@H]1CCN(C(=O)CC#N)C[C@@H]1N(C)c1ncnc2[nH]ccc12 [CP690550] (first compound 2 µM, partner dose 1 µM)",88
9,"Cn1c(Nc2ccc(C(F)(F)F)cc2)nc2cc(Oc3ccnc(-c4ncc(C(F)(F)F)[nH]4)c3)ccc21 + OCCn1cc(-c2cnc3nnn(Cc4ccc5ncccc5c4)c3n2)cn1 [PF04217903] (first compound 0.08 µM, partner dose 1 µM)",77.9
10,"Cn1c(Nc2ccc(C(F)(F)F)cc2)nc2cc(Oc3ccnc(-c4ncc(C(F)(F)F)[nH]4)c3)ccc21 + O=C(Nc1ccccc1)c1cc([N+](=O)[O-])ccc1Cl [GW9662] (first compound 0.08 µM, partner dose 2 µM)",75.6
11,"OCc1c[nH]c2ccccc12 [Indole-3-carbinol] + C=CCn1c(=O)c2cnc(Nc3ccc(N4CCN(C)CC4)cc3)nc2n1-c1cccc(C(C)(C)O)n1 [MK1775] (first compound 0.8 µM, partner dose 0.02 µM)",68.6
12,"OCc1c[nH]c2ccccc12 [Indole-3-carbinol] + CN(NC(=O)CC(=O)NN(C)C(=S)c1ccccc1)C(=S)c1ccccc1 [STA4783] (first compound 0.8 µM, partner dose 0.006 µM)",50.2
13,"OCc1c[nH]c2ccccc12 [Indole-3-carbinol] + C[C@@H]1CCN(C(=O)CC#N)C[C@@H]1N(C)c1ncnc2[nH]ccc12 [CP690550] (first compound 0.8 µM, partner dose 1 µM)",91.7
14,"C#Cc1cccc(Nc2ncnc3cc(OCCOC)c(OCCOC)cc23)c1 [erlotinib] + OCCn1cc(-c2cnc3nnn(Cc4ccc5ncccc5c4)c3n2)cn1 [PF04217903] (first compound 0.8 µM, partner dose 1 µM)",77.5
15,"COCC[n+]1c2c(n(Cc3cnccn3)c1C)C(=O)c1ccccc1C2=O + CO[C@@H]1[C@H](N(C)C(=O)c2ccccc2)C[C@H]2O[C@]1(C)n1c3ccccc3c3c4c(c5c6ccccc6n2c5c31)C(=O)NC4 [Midostaurin] (first compound 0.0004 µM, partner dose 0.08 µM)",110

# Source: the supplement of paper PMC4604168 (melanoma cell lines)
